# Laboratory results reported in PubChem BioAssay AID463173 (ICCB-Longwood Screening Facility, Harvard Medical School, 2010).
# The whole screen tested about 52,000 compounds, of which about 4,300 (8.3%) were called active. Cut-off read from the data, not from the text of the source: active = survival mostly below about 52% (no sharp cut-off); inactive = mostly above about 56%. The list shows a part of the results.
# Test system: DeltatarO mutant
# Experiment: growth inhibition of S. aureus wild type versus tarO mutant, primary screen, teichoic acid synthesis inhibitors, RN4220, OD600 (AID 463173)
# Conditions: OD600, 18 h, stronger effect = lower value, screened at 18.75 µg/mL (by protocol)
row,Compound,survival
1,Cc1ccc(C)c(Cn2c(C)c(CNCc3ccc(F)cc3)c(C(=O)O)c2C)c1,inactive: 86%
2,COc1ccc(CCNC(=O)CCCCCn2c(=O)[nH]c3cc(OC)c(OC)cc3c2=O)cc1OC,inactive: 76%
3,CC(=O)Nc1nnc(SCc2cc(=O)c3cccc(C)c3[nH]2)s1,inactive: 91%
4,CCOC(=O)c1cccc(NC(c2nnc(-c3ccccc3)o2)c2ccccc2F)c1 (stereo not given),inactive: 80%
5,Cc1ccc(C)c(N2CCN(c3nc4ccccc4c4nc(-c5cccnc5)nn34)CC2)c1,inactive: 92%
6,CC(C)C(=O)Nc1cccc(NC2=NS(=O)(=O)c3ccccc32)c1,inactive: 78%
7,CSc1nnc(COc2ccc(Br)cc2)n1Cc1ccccc1,inactive: 97%
8,CCc1ccc(C2=CC(c3cccc(Br)c3)n3nnnc3N2)cc1 (stereo not given),inactive: 72%
9,Cc1ccc2c(c1)c(=O)c(C(=O)c1ccncc1)cn2CC(=O)Nc1ccccc1Cl,inactive: 67%
10,COc1ccc(-c2cc(C(F)(F)F)n3nc(C(=O)Nc4cccc(C(F)(F)F)c4)c(Br)c3n2)cc1,inactive: 73%
11,CCOC(=O)c1sc2ccccc2c1S(=O)(=O)NCc1ccc(F)cc1,inactive: 94%
12,CCOC(=O)c1ccc(NC(=O)CCn2cnnn2)cc1,inactive: 76%
13,CC1(C)CC(NC(=O)C2CCCCC2)CC(C)(C)N1,inactive: 66%
14,COC(=O)c1cnc(N2CCN(c3ccccc3OC)CC2)c2ccccc12,inactive: 94%
15,O=C(Cn1cnc2ccccc2c1=O)Nc1ccccc1,inactive: 82%
16,CC1=C(c2ccc(Cl)cc2)S(=O)(=O)N=C1N1CCN(c2cccc(C(F)(F)F)c2)CC1,inactive: 71%
17,O=S(=O)(c1ccc(Br)cc1)N1CCOCC1,inactive: 94%
18,CCSc1nc(-c2ccc(Cl)cc2)nc2c1Cc1c(CO)cnc(C)c1O2,active: 39%
19,COc1ccccc1CNC(=O)CCC1N=C2c3ccccc3N=C(SCc3ccccc3Cl)N2C1=O (stereo not given),inactive: 49%
20,Cc1cccn2c(=O)cc(COc3ccc(NC(=O)c4cccc(F)c4)cc3)nc12,active: 17%
21,CCC1CCCCN1C(=O)Cn1c(=O)n(CCCCCC(=O)NCc2ccc(F)cc2)c(=O)c2sccc21 (stereo not given),inactive: 170%
22,O=C(O)CCn1cnc2onc(-c3ccccc3Cl)c2c1=O,inactive: 65%
23,O=C(Nc1c(C(=O)Nc2cccc(C(F)(F)F)c2)oc2ccccc12)c1cc(=O)c2ccccc2o1,inactive: 78%
24,Cn1nnc2cc(C(=O)N(CCO)c3ccccc3)ccc21,inactive: 107%
25,CCn1c(=O)c2cc(C(=O)NCCCN(C)Cc3ccccc3)sc2c2ccccc21,inactive: 106%
